Reference: patent publication US8980259B2, “Combination therapy” (Novartis AG, priority 2012, dated 2015)

Tests used:
[1] = tested on: MCF7 human breast carcinoma cells; assay: Cell viability / proliferation assay (CELLTITER-GLO, dose matrix) in MCF7 cells; assay type: cell-based
Method: FIG. 1 is a series of graphs showing the effect of the combination of COMPOUND A with ANTIBODY A on MCF7 cell proliferation under the presence of IGF-1 (100 ng/ml). Briefly, MCF7 cells were treated in 384-well format for 5 days with COMPOUND A and ANTIBODY A in the presence of 100 ng/ml of IGF1 in SD medium. […] Each data point represents averaged data from 3 wells+standard deviation, and the color spectrum also represents the level of the inhibition. A red rectangle highlights the region where the combination is more efficacious than the single agents the same dose.
COMPOUND A (10 mM), stored in aliquots at −20° C. ANTIBODY A (0.2 mM in 1% BSA), stored in aliquots at 4° C. Insulin-like Growth Factor-1 (IGF-1; BD BioSciences, #40037) was utilized at 100 ng/mL.
MCF7 human breast carcinoma cells were stably transfected by a none insert control vector, also named MCF7/3(1). Unless otherwise mentioned, all MCF7 cell culture reagents were obtained from Invitrogen (Grand Island, N.Y. 14072USA). […]
Cell viability was determined by measuring cellular ATP content using the CELLTITER-GLO (CTG) luminescent cell viability assay (Promega). […] An equal volume of the CTG reagents was added to each well at the end of the compound treatment and luminescence was recorded on an ENVISION plate reader (Perkin Elmer). Reduced and enhanched luminescent signal values (responses) were calculated relative to untreated (control) cells.
To evaluate the anti-proliferative activity of COMPOUND A with ANTIBODY A in a non-bias way, as well as to identify synergistic effect at all possible concentrations, the studies were conducted with a “dose matrix.” This utilized different permutations of serially-diluted single agents: COMPOUND A, and ANTIBODY A. In combination assay, agents were applied simultaneously and were assessed in the presence and absence of IGF-1. […]
The synergistic interaction (analyzed using Chalice software [CombinatoRx, Cambridge Mass.]) was calculated by comparing the response from a combination to the response of the agent acting alone, against the drug-with-itself dose-additive reference model. […]

[2] = tested on: MCF7 xenograft; assay: MCF7 xenograft in mice, tumor volume; assay type: in vivo
Method: MCF-7 cells (purchased from American Type Culture Collection (ATCC)) were tested free of mycoplasma and viral contamination in the IMPACT VIII PCR assay panel (RADIL, MU Research Animal Diagnostic Laboratory, Columbia, Mo.). MCF-7 cells were cultured in EMEM medium (ATCC#30-2003) containing 10% heat-inactivated fetal bovine serum. Mice were implanted with 17b-estradiol pellets, 0.18 mg/pellet, 90-day release (Innovative research of America Catalog #NE-121), between the shoulder blades three days before the cell implant.
Treatment started on day 21 and concluded by day 59. Tumor volume of each group was measured. The effect of COMPOUND A and ANTIBODY A, as monotherapy and combination, was assessed by comparing: • (a) the percent change between Day 1 and endpoint day in the mean tumor volume of the treated group (T) and the control group (C) (herein referred to as “T/C”), and • (b) the percent change between Day 1 and the endpoint day in the mean tumor volume of the treated group compared to its initial volume (herein referred to as “T/T0”).

B1: ANTIBODY A: fully human IGF1R inhibitory antibody; heavy chain SEQ ID NO:1, light chain SEQ ID NO:2; disclosed in U.S. Pat. No. 7,871,611 (antibody)
heavy: QVQLQESGPGLVKPSGTLSLTCAVSGGSISSSNWWSWVRQPPGKGLEWIGEIYHSGSTNYNPSLKSRVTISVDKSKNQFSLKLSSVTAADTAVYYCARWTGRTDAFDIWGQGTMVTVSS[human IgG1 constant region left out]
light: [about 100 residues left out]THWPLTFGQGTKVEIKRTVAAPSVFIFPPSDEQLKSGTASVVCLLNNFYPREAKVQWKVDNALQSGNSQESVTEQDSKDSTYSLSSTLTLSKADYEKHKVYACEVTHQGLSSPVTKSFNRGEC
modifications: Synthetic antibody A heavy chain; Synthetic antibody A light chain
Q: Which “MCF7 growth inhibition in vitro (summary in words)” value ([1]; MCF7, Experiment 1 summary) does the source give for B1 here?
A: modest inhibitory activity

Q: And the “anti-proliferative activity (in words)” value ([1]; MCF7, single agent, in the absence of IGF1)?
A: almost totally inactive

Q: What about the “inhibition of cell proliferation” value ([1]; MCF7, single agent, in the presence of IGF1 (100 ng/ml), SD medium, 120 hours, CTG) of the same molecule?
A: 10-20%

Q: What about the “tumor outcome in MCF7 xenograft (summary in words)” value ([2]; MCF7 xenograft in mice, Experiment 2 summary) of the same molecule?
A: marginal growth inhibition

Q: What about the “T/C (percent change in mean tumor volume, treated vs control group)” value ([2]; MCF7 xenograft mice, COMPOUND A 30 mg/kg qd po, ANTIBODY A 12 mg/kg q2w ip, treatment day 21 to day 59) of the same molecule?
A: 48%
